# Out of some 310,000 compounds screened, about 2,200 (0.71%) showed an effect of 50% or more. The effect is printed as a negative number. The list shows a part of the results.
# Target: human ether-à-go-go-related gene (hERG) potassium channel (human, UniProt Q12809)
# Test: primary screen, population patch clamp on CHO cells stably expressing hERG
# Sequence of human ether-à-go-go-related gene (hERG) potassium channel (Q12809 whole entry, looked up): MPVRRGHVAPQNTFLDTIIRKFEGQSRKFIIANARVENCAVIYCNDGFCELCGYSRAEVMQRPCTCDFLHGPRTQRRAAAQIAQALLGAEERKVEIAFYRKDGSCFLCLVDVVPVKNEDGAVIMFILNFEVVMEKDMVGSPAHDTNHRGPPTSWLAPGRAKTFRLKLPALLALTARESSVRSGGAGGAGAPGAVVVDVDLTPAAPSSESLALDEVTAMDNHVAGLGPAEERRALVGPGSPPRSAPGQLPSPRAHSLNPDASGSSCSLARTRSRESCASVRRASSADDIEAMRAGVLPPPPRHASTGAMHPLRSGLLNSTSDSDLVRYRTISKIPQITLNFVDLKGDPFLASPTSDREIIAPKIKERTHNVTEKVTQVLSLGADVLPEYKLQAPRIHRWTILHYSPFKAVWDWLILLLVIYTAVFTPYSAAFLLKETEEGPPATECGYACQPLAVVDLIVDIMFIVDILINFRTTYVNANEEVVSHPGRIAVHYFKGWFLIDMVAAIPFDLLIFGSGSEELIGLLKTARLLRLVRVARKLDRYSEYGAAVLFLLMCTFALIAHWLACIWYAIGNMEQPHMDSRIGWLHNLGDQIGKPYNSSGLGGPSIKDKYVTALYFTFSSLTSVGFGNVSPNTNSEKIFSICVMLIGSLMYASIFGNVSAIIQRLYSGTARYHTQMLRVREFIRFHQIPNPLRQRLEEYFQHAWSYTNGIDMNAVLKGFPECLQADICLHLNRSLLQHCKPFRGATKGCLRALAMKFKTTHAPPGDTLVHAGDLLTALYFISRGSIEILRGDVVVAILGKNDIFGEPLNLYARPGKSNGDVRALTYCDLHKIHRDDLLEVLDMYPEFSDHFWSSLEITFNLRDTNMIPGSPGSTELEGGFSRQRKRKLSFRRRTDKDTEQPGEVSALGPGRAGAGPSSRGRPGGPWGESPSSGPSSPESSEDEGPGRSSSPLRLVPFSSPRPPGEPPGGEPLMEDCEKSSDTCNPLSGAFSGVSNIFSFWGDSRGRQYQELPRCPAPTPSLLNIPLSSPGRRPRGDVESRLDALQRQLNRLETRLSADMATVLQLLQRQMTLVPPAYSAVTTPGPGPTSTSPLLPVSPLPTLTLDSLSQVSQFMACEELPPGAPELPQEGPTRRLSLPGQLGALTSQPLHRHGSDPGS
row,SMILES,"hERG current change (%, negative = inhibition) at 1uM"
1,CCc1nnc(NS(=O)(=O)c2ccc(N)cc2)s1,10.6%
2,Cc1cc(N=Cc2cc(Cl)ccc2O)no1,1.39%
3,CN(CC(=O)Nc1ccccc1F)CC(=O)Nc1ccc(F)c(F)c1F,11.8%
4,N#Cc1cnn(Cc2ccccc2)c1/N=C/N1CCOCC1,4.04%
5,COc1ccc(-c2nc3c(n2O)CCC/C3=N\O)cc1,-1.25%
6,COc1ccccc1OCC(=O)Nn1c(=S)[nH]c2ncccc2c1=O,18.9%
7,Cc1cc(C)cc(N(CC(=O)N2CCN(Cc3ccccc3)CC2)S(=O)(=O)c2c(C)noc2C)c1,4.41%
8,N#Cc1ccc(S(=O)(=O)N2CCCN(c3nc4ccc(Cl)cc4s3)CC2)cc1,1.25%
9,CN(C)/C=C/c1oc2ccc(O)cc2c1[N+](=O)[O-],13.4%
10,Nc1ccccc1Sc1ccc(C(F)(F)F)cc1[N+](=O)[O-],5.26%
11,CC(C)CC(=O)N1CC(=O)Nc2ccc(F)cc2C1c1ccccc1 (centres unmarked),8.7%
12,CC(C)c1nc2sc3c(=O)[nH]cnc3c2c2c1CCC2,0.538%
13,COC(=O)c1ccccc1NC(=O)CSc1nc(Nc2ccccc2)nc(N2CCOCC2)n1,-5.58%
14,CNC(=O)CSc1nc2cccnc2n1C1CCCCC1,14.7%
15,CCc1nc(C)cc2c1sc1ccccc12.Cl,5.22%
16,CCn1cc(C(=O)NCC2CCCO2)c(=O)c2cc(S(=O)(=O)N3CCCCCC3)ccc21 (centres unmarked),-2.99%
17,O=C(COc1ccccc1)NCC(=O)N/N=C/c1ccc(Cl)cc1,6.92%
18,CCN(CC)S(=O)(=O)c1ccc(-c2nnc(SCC(=O)Nc3cc(OC)cc(OC)c3)o2)cc1,-11.4%
19,O=C(N/N=C/c1cn[nH]c1-c1ccc(Cl)cc1)c1ccc([N+](=O)[O-])cc1,-2.03%
20,O=C(C1=C(O)C(=O)N(CCOCCO)C1c1cccs1)c1cccs1 (centres unmarked),8.78%
21,COc1cc(CC(=O)OCC(=O)NC2CCCC2)cc(OC)c1OC,17.1%
22,O=C(OCC(=O)N1CCCc2ccccc21)c1c(F)cccc1F,16.5%

row,SMILES,"hERG current change (%, negative = inhibition) at 1uM"
1,CCN1CCN(c2ccccc2NC(=O)c2ccc(-n3cccn3)cc2)CC1,-5.59%
2,Cc1nnc(NC(=O)CSc2nc(CC(C)C)nc3c2c(=O)n(C)c(=O)n3C)s1,0.95%
3,CCC(=O)c1ccc(OCC(=O)NC2CCCC2)cc1,18.5%
4,COc1ccc(Nc2cc(Cl)nc(N)n2)cc1OC,13.5%
5,COc1ccc(/C=C(/NC(=O)c2ccc(C)cc2)C(=O)NCc2ccncc2)cc1,-21.3%
6,Cc1c(Br)c([N+](=O)[O-])nn1CC(=O)NCc1cccnc1,-3.68%
7,O=c1oc2ccc(Br)cc2cc1-c1nc2ccccc2o1,12%
8,O=C(O)C1CCCC[C@H]1C(=O)Nc1ncc([N+](=O)[O-])s1 (some centres unmarked),9.02%
9,Cc1cccnc1Nc1nc(-c2ccc(O)cc2)cs1,0.894%
10,CCN(CC(=O)NCc1ccc(F)cc1)C(=O)c1ccc(C)o1,12.4%
11,CN1c2ccccc2Oc2nnc(N3CCN(Cc4ccccc4)CC3)cc21,-46.6%
12,CC1=C[C@H]2OC(=O)[C@@H](C)[C@H]2C[C@@H]2[C@H]1C[C@@H](O)[C@@]2(C)O,5.41%
13,COc1cccc(CC(=O)N2CCC(CCC(=O)Nc3cccc(OC)c3)CC2)c1,-0.988%
14,Cc1c(NC(=O)COC(=O)c2cc(-c3ccc(-c4ccccc4)cc3)nc3ccccc23)c(=O)n(-c2ccccc2)n1C,15.3%
15,COc1ccc(CC(=O)N(c2ccccc2)c2nc(C)cs2)cc1,1.42%
16,COC(=O)c1cc2sccc2n1Cc1ccc(C)cc1,16.4%
17,COc1ccc(-c2nc(SCC(=O)NCc3ccco3)c(-c3ccccc3)[nH]2)cc1OC,4.9%
18,CCN(C(=O)COC(=O)c1ccc(C)c(S(=O)(=O)N2CCCCC2)c1)C1CCS(=O)(=O)C1 (centres unmarked),-20%
19,CCOC(=O)c1nnn(CC(=O)Nc2ccccc2OC)c1C(=O)OCC,11.5%
20,CCC(C)C(NC(=O)OCc1ccccc1)C(=O)NCC(c1ccccc1)N(C)C (centres unmarked),8.15%
21,CC(=O)N1CCN(c2ccc([N+](=O)[O-])cc2C#N)CC1,-47.9%
22,CN(C)C(=O)NC(O)C(Cl)Cl (centres unmarked),1.65%

# Source: article PMC4336329 (PLoS ONE, 2015)
